About 11,000 (3.5%) of roughly 310,000 compounds were called active. This list was built around the results that the source calls inconclusive (neither active nor inactive); the mix of calls is not that of the screen. Calls come from the whole dose curve; as a rule, active = well fitted inhibition curve with a large enough effect; inconclusive = small, poorly fitted or top-dose-only effect, or effect the other way; inactive = flat fitted curve, though single readings scatter. Potencies of inconclusive entries are left out as doubtful fits.
assay: VP16 counterscreen qHTS for inhibitors of ROR gamma transcriptional activity; settings: Drosophila S2 Gal4-VP16 UAS-luciferase, luminescence, 20 h; activity, negative = inhibition: at 53.6 µM (top of the series);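 note: Gal4-VP16 expression switched on by copper sulfate through the metallothionein promoter; nearly all actives have a fitted effect of over 50% in size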
% is set by controls: 0 for no effect and ±100 for the full control effect; potency is the fitted concentration of half-maximal effect; tags give direction and shape of the fitted curve.

Row | Compound | Potency | activity, negative = inhibition
1 | Cc1cc(Cl)ccc1OCCNC(=S)NC(=O)c1cccnc1 | inactive | –
2 | CCOC(=O)c1c(-c2ccc(C)cc2)csc1/N=C/N(C)C | inactive | –
3 | COc1cc(NC(=S)N2c3ccccc3CC2C)cc(OC)c1 (stereo unspecified) | active: 17.8 µM | –
4 | NC(=O)C1(N2CCCCC2)CCN(c2nc(-c3ccccc3)cs2)CC1 | inactive | –
5 | Cn1nc(C(=O)Nc2cccc(Cl)c2)cc1C(=O)Nc1cccc(Cl)c1 | inconclusive [inhibitor, single point] | –
6 | CC(=O)N(C1=C(N2CCOCC2)C(=O)c2ccccc2C1=O)c1ccc(C(=O)O)cc1 | active: 11.2 µM | –
7 | O=C(Nc1ccc(F)cc1)Nc1nnc(Cc2ccccc2F)s1 | inactive | –
8 | CC1Cc2ccccc2N1C(=O)Cn1cnc2ccccc21 (stereo unspecified) | inconclusive [inhibitor, single point] | –
9 | N#C/C(=C\c1cccnc1)C(=O)NC1CCCCC1 | inconclusive [inhibitor, single point] | –
10 | COc1ccccc1C(=O)C1CCCN(C(=O)c2ccc3c(c2)OCCO3)C1 (stereo unspecified) | inactive | –
11 | Cc1sc2nc(SCc3nc4ccccc4[nH]3)n(Cc3ccco3)c(=O)c2c1C | inconclusive [inhibitor, single point] | –
12 | Cc1ccc(C)c(N2CCN(C(=O)c3ccc(NC4=NC5CS(=O)(=O)CC5S4)cc3)CC2)c1 (stereo unspecified) | inactive | –
13 | CCOC(=O)c1cc(-c2ccc(OC)cc2)nc2c1c(C)nn2CCC(N)=S | inconclusive [inhibitor, single point] | –
14 | COc1ccc(OCCCc2c(C)n[nH]c2C)cc1 | inconclusive [inhibitor, single point] | –
15 | CCOC(=O)c1ccc(NC(=O)c2nc[nH]c2C(=O)N2CCc3ccccc3C2)cc1 | inconclusive [inhibitor, single point] | –
16 | CCCCC/C=C\C/C=C\C/C=C\CCCCCCC(=O)NCCCC(=O)O | inactive | –
17 | CCCCNC1C(CC)C(CCC)C(C#N)(C#N)C1(C#N)C#N (stereo unspecified) | inconclusive [inhibitor, single point] | –
18 | Cc1c(C(=O)Nc2ccc(Cl)cn2)oc2ccccc12 | inconclusive [activator, single point] | –
19 | COc1cccc(Cn2c(=O)c(-c3ccc(Cl)cc3)nc3cnc(OC)nc32)c1 | inactive | –
20 | CCn1c(C)nc2cc(C(=O)N/N=C/c3cccc(O)c3O)ccc21 | active: 11.2 µM | –
21 | CC(C)N(C(=S)NC1CC2CCC1C2)c1ccccc1 (stereo unspecified) | inactive | –
22 | COc1ccccc1/C=C/C(=O)Oc1cccc2cccnc12 | active: 5.62 µM | –
23 | COc1ccc(C2NN=C(c3c[nH]c4ccccc34)C2O)cc1 (stereo unspecified) | inactive | –
24 | CCOC(=O)Cc1csc(NC(=O)CSc2nnc(-c3ccc(C)cc3)o2)n1 | inconclusive [inhibitor, single point] | –
25 | CNC(=O)Cn1c(C)cc(=O)c2cccc(OC)c21 | inactive | –
26 | CC(C)CC(NC(=O)C(Cc1ccc(OCc2ccccc2)cc1)NC(=O)OC(C)(C)C)C(N)=O (stereo unspecified) | inconclusive [inhibitor, partial curve] | –

Row | Compound | Potency | activity, negative = inhibition
27 | O=C(CSC(=S)N1CCCCC1)Nc1nc(-c2ccccc2)c(-c2ccccc2)o1 | inconclusive [inhibitor, single point] | –
28 | O=C(N/N=C/c1cc([N+](=O)[O-])ccc1O)NC12CC3CC(CC(C3)C1)C2 | inconclusive [inhibitor, single point] | –
29 | Cc1cc2c(NC(=O)Nc3ccccc3)cccc2nn1 | inactive | –
30 | O=C(COc1ccc(F)cc1F)Nc1cccnc1 | inactive | –
31 | CC1=NN(Cc2ccccc2)C(=O)/C1=C/c1ccc(N(C)C)cc1 | inactive | –
32 | CN(CC(=O)Nc1ccc(F)cc1)c1ccc(S(=O)(=O)N2CCCCC2)cc1[N+](=O)[O-] | inconclusive [inhibitor, single point] | –
33 | C=CCOc1c(CNc2ccc(C(=O)O)cc2)cccc1OC | inconclusive [inhibitor, single point] | –
34 | O=[N+]([O-])c1ccc(CSc2nnc(Cc3ccccc3)n2-c2ccc(F)cc2)cc1 | active: 10 µM | –
35 | CCN1CCCC(OC(=O)c2cc(-c3ccc(C)cc3)nc3ccccc23)C1 (stereo unspecified) | inactive | –
36 | Cc1ccc(S(=O)(=O)NCc2ccc3c(c2)cc(C)n3C)cc1 | inactive | –
37 | Cc1cc(OCC(=O)NNC(=S)NC(=O)c2cccs2)ccc1Cl | inconclusive [inhibitor, single point] | –
38 | O=C(NC1CCCC1)c1cnn2c(C(F)(F)F)cc(-c3ccco3)nc12 | inconclusive [inhibitor, single point] | –
39 | CCOC(=O)C1=C(Cc2ccc(OC)cc2)C(=O)c2ccccc2C1=O | inconclusive [inhibitor, single point] | –
40 | O=C(Nc1nccs1)c1ccc(S(=O)(=O)N2CCCCC2)cc1 | inconclusive [inhibitor, single point] | –
41 | COc1ccc(/C=C2\SC(=O)N(CC(=O)NNC(=O)c3ccccc3O)C2=O)cc1OC | inconclusive [activator, single point] | –
42 | CCOc1ccccc1N=Nc1c(C)[nH]n(C(N)=S)c1=O | active: 1.26 µM | –
43 | COc1ccccc1N1CCN(C(CNC(=O)c2ccc3c(c2)OCO3)c2cccnc2)CC1 (stereo unspecified) | inconclusive [inhibitor, partial curve] | –
44 | COc1ccccc1NC(=O)C(=O)N1N=C(C(C)C)CC1(O)C(F)(F)F (stereo unspecified) | inconclusive [inhibitor, single point] | –
45 | Cc1cc(C2=NNC(=NC3CC3)SC2)c(C)n1-c1ccccc1F | active: 0.708 µM | –
46 | Cc1cc(C)cc(NC(=O)/C(C#N)=C/c2cn(CC(=O)NCc3ccco3)c3ccccc23)c1 | inconclusive [inhibitor, partial curve] | –
47 | CCCCCCCCCS(=O)(=O)N/N=C/c1cccc([N+](=O)[O-])c1 | inactive | –
48 | CCOC(=O)/C(=N/Nc1ccc(OC)cc1)Sc1nnc(CCc2ccccc2)n1-c1ccccc1 | inconclusive [inhibitor, single point] | –
49 | Cn1[nH]c(CSc2ccc(Cl)cc2)cc1=O | inactive | –
50 | O=[N+]([O-])c1cc(C(F)(F)F)ccc1NCCCCNS(=O)(=O)c1ccc2ccccc2c1 | inconclusive [inhibitor, single point] | –
51 | Cc1c(NC(=S)N/N=C\c2ccccc2O)c(=O)n(-c2ccccc2)n1C | inactive | –
52 | Oc1csc(Cc2nc(-c3ccccc3F)cs2)n1 | inconclusive [inhibitor, full curve, poor fit] | –

Row | Compound | Potency | activity, negative = inhibition
53 | O=C(NC(NC(=S)Nc1c(Cl)cccc1Cl)C(Cl)(Cl)Cl)OCc1ccccc1 (stereo unspecified) | inconclusive [inhibitor, single point] | –
54 | O=C(Cn1nnc(-c2ccc(N3CCOCC3)cc2)n1)N1CCOCC1 | inconclusive [inhibitor, single point] | –
55 | COc1ccc(/C=N/NC(=O)c2c(C)nc3ccc(Cl)cn23)cc1OC | inactive | –
56 | COc1ccc(C(=O)CCNc2cccc(Cl)c2)cc1 | inconclusive [activator, full curve, poor fit] | –
57 | O=C(N/N=C\c1coc2ccccc2c1=O)c1ccco1 | inactive | –
58 | CC1C/C(=C/c2ccncc2)C(=O)/C(=C/c2ccncc2)C1 (stereo unspecified) | active: 2.82 µM | –
59 | O=S1(=O)CCC(NC(=S)SCc2ccccc2Br)C1 (stereo unspecified) | inconclusive [inhibitor, single point] | –
60 | O=C(COc1cccc2ccccc12)N/N=C/c1ccncc1 | inactive | –
61 | O=S(=O)(Nc1ccc(N=Nc2ccc(O)c3ccccc23)cc1)c1ccccc1 | inconclusive [inhibitor, single point] | –
62 | CC(=O)Oc1ccc(OC(C)=O)c(SCCCCCCl)c1 | – | inactive: -6.1% [at 10 µM]
63 | Cc1ccc(O)c(N=Nc2ccccc2)n1 | active: 2.82 µM | –
64 | Cc1cc(C)c(NC(=O)COc2nc3ccccc3nc2C)c(C)c1 | inactive | –
65 | O=C(/C=C/c1ccccc1[N+](=O)[O-])N1CCN(c2ccccc2F)CC1 | inconclusive [activator, partial curve, poor fit] | –
66 | Cc1sc(NC(=O)c2ccco2)nc1-c1ccccc1 | inconclusive [inhibitor, single point] | –
67 | COc1cc(OC)cc(C(=O)NCC(=O)OCC(=O)/C=C2/N(C)c3ccccc3C2(C)C)c1 | active: 17.8 µM | –
68 | CCCCc1nc2cc(C(=O)N3CCN(c4nc(C)cnc4C)CC3)ccc2o1 | inactive | –
69 | COc1ccc2c(c1)OC/C(=C\c1ccc(OC)c(O)c1)C2=O | inconclusive [inhibitor, partial curve] | –
70 | Cc1cc(-n2c(SCC(=O)Nc3ccc(F)c(F)c3)nc3n[nH]c(C)c3c2=N)ccc1Cl | inconclusive [inhibitor, single point] | –
71 | Cc1ccc(NS(=O)(=O)c2ccc(N3CCN(c4ccc(O)cc4)CC3)c([N+](=O)[O-])c2)c(C)c1 | inconclusive [inhibitor, single point] | –
72 | COC(=O)CN1C(=O)COc2ccc(S(=O)(=O)NCc3ccc(F)cc3)cc21 | inactive | –
73 | O=C(c1ccccc1SCc1ccc(F)cc1)N1CCOCC1 | inactive | –
74 | O=C(Nc1nccs1)c1ccc(-c2cccc([N+](=O)[O-])c2)o1 | – | inactive: -17% [at 10 µM]
75 | Cc1ccccc1NC(=O)Cn1c(O)c(N=NC(=O)c2ccccc2O)c2ccccc21 | inconclusive [inhibitor, single point] | –
76 | O=C(Nc1cccc(Cl)c1)OCCN1CCN(Cc2ccccc2)CCC1=O | inactive | –

Source: PubChem BioAssay AID2546 (National Center for Advancing Translational Sciences (NCATS), 2010)
